Data from PubChem BioAssay AID360 (National Center for Advancing Translational Sciences (NCATS), 2006).
Screen size: about 48,000 compounds; about 550 (1.1%) were called active. Inconclusive results (about 4%) are left out. Rule as the data show it: active = potency below about 15 µM; inconclusive = mostly about 16 µM to 33 µM; inactive = weaker than that. Some of the results follow.

biological target: Lysosomal acid glucosylceramidase (Homo sapiens) (UniProt P04062); experiment: Glucocerebrosidase; settings: purified enzyme, resorufin glucoside fluorescence (screen aimed at inhibitors), 20 min;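 also: the screen sought inhibitors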
Chain of UniProt P04062 (P04062 whole entry, looked up): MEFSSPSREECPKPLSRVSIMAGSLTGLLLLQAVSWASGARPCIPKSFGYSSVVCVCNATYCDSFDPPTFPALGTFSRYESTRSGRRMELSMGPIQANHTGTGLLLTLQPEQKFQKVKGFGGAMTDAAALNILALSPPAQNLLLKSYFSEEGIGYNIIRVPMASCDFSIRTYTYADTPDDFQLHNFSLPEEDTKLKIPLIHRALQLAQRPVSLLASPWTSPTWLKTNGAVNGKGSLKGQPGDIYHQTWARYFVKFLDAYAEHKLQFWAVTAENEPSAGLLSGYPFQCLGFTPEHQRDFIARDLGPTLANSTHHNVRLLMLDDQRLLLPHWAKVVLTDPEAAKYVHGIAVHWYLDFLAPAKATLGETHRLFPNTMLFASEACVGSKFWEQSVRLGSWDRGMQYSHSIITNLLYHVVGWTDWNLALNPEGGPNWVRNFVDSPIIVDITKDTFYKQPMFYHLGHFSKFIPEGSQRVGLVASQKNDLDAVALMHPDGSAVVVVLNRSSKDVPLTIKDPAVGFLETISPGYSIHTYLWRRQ
In short: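 Wild-type enzyme at 0.2 nM final in 50mM citric acid/KH2PO4, 10mM sodium taurocholate, 0.01% tween-20, pH 5.9, with resorufin beta-D-glucopyranoside at 30 uM final. Compounds titrated, 20 min at RT, red fluorescence read; AC50 from titration.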
Potency is read from the fitted curve at half-maximal effect.

Potency, inactive:
COC(=O)c1ccc(Cl)c(NC(=O)CN2CCN(Cc3ccccc3)CC2)c1 > 76.9 µM
CCOC(=O)c1sc(NC(=O)c2c(C)noc2C)c(C(=O)OCC)c1C > 76.9 µM
COc1ccc(OC)c(Nc2nc(-c3cccs3)cs2)c1 > 76.9 µM
CC(C)N(Cc1cc2ccccc2[nH]c1=O)C(=O)c1cccnc1 > 76.9 µM
O=C(NCC(=O)N(c1ccccc1)C(C(=O)NCC1CCCO1)c1ccccc1)c1ccco1 (stereo not given) > 76.9 µM
CCN(CC)CCCNC(=O)Cc1c(C(=O)O)n(C)c2ccccc12 > 76.9 µM
COC(=O)C1=C(C)Nc2ncnn2C1c1ccc(OC(=O)c2ccccc2)cc1 (stereo not given) > 76.9 µM
CCOc1ccc(/C(O)=C2/C(=O)C(=O)N(CCOCCO)C2c2cccnc2)cc1 (stereo not given) > 76.9 µM
Cc1c(C(C)O)nnn1-c1nonc1N (stereo not given) > 76.9 µM
CC12CCC(C(N)=O)(c3nc4ccccc4nc31)C2(C)C (stereo not given) > 76.9 µM
CCN(CC)S(=O)(=O)c1ccc(C(=O)OC2CCCCC2CN(C)C)cc1 (stereo not given)
O=C1c2ccccc2C(=O)N1OCCOCCOCCON1C(=O)c2ccccc2C1=O > 76.9 µM
COC(=O)n1c(=O)oc2cc(S(=O)(=O)N3CCCCC3)ccc21 > 76.9 µM
Cc1ccc(CNc2ccc3c(c2)OCO3)cc1 > 76.9 µM
CC1CCCC(C)N1C(=O)CSc1nnc(-c2c[nH]c3ccccc23)o1 (stereo not given) > 76.9 µM
CCOC(=O)c1c(C)n(C)c2ccc(O)c(CN3CCC(C)CC3)c12 > 76.9 µM
Cc1ccc(-c2nn3nnnc3c3ccccc23)cc1 > 76.9 µM
CCCCNC(=O)CN1C(=O)C(CC)Oc2ccc(Cl)cc21 (stereo not given) > 76.9 µM
Cn1c(=O)n(C)c2cc(C(=O)O)ccc21 > 76.9 µM
COCCn1nnnc1C(c1cc(OC)ccc1OC)N1CCc2ccccc2C1 (stereo not given) > 76.9 µM
Cc1cc(C)n(-c2nc3c(c(=O)n(Cc4ccc(Cl)c(Cl)c4)c(=O)n3C)n2C)n1 > 76.9 µM
C=CCn1c(N)c(C(=O)NC2CCCCC2)sc1=S > 76.9 µM
O=S(=O)(c1cc(F)cc(F)c1)N1CCN(c2ncccn2)CC1 > 76.9 µM
O=C(c1ccco1)N1CCN(C(=O)c2cnn3c2NC(c2cccs2)CC3C(F)(F)F)CC1 (stereo not given) > 76.9 µM
CC1CCCN(C(=O)CSc2nnc(-c3cccnc3)n2C2CCCCC2)C1 (stereo not given) > 76.9 µM
CCC(C)Sc1nc2c(c(=O)[nH]c(=O)n2C)n1C (stereo not given) > 76.9 µM
O=C(CSc1ncn[nH]1)N1CCN(c2nnc(-c3ccccc3)c3ccccc23)CC1 > 76.9 µM
CN1CCN(C(=O)CCn2nc(-c3ccccc3)c3ccccc3c2=O)CC1 > 76.9 µM
O=C1C2ON(c3ccc(Br)cc3)C(c3cccnc3)C2C(=O)N1C1CCCCC1 (stereo not given) > 76.9 µM
CCOC(=O)c1cc2n(n1)C(C(F)(F)C(F)(F)F)CC(C)N2 (stereo not given) > 76.9 µM
CCn1cc(C(=O)NCc2ccco2)c(=O)c2cc(S(=O)(=O)N3CCc4ccccc4C3)ccc21 > 76.9 µM
CC(=O)N1CCc2cc(S(=O)(=O)NCCN3CCC(C)CC3)ccc21 > 76.9 µM
Cc1ccc2[nH]c(=O)c(CN(CC3CCCO3)C(=O)c3ccncc3)cc2c1 (stereo not given) > 76.9 µM
O=C(Nc1ccc(-n2nncc2-c2ccco2)cc1)c1cccc(F)c1 > 76.9 µM
COc1ccc(CN2CC(C(=O)N3CCOCC3)CC2=O)cc1 (stereo not given) > 76.9 µM
COc1ccc(O)c(/C=c2/sc3nc4cc(C)c(C)cc4n3c2=O)c1 > 76.9 µM
COc1ccc(CCNC(=O)C2CCN(S(=O)(=O)N3CCCCC3)CC2)cc1OC > 76.9 µM
O=C1c2sc3nc4ccccc4n3c2C(=O)N1c1ccccc1Cl > 76.9 µM
COc1ccc(NC(=O)CCOc2ccccc2)c(OC)c1 > 76.9 µM
CCCCn1c(SCC(=O)N2CCC(C(=O)OCC)CC2)nc2cc(S(N)(=O)=O)ccc21 > 76.9 µM
O=C(O)CCC(=O)NC1CCCCCCC1 > 76.9 µM
c1ccc(CCn2nnnc2CN2CCN(C3CCCC3)CC2)cc1 > 76.9 µM
COC(=O)c1[nH]c2cccc(OC)c2c1NC(=O)CCN1CCN(c2ccccc2F)CC1 > 76.9 µM
O=C(Nc1ccc(OC(=O)c2ccco2)cc1)c1ccco1 > 76.9 µM
CCOC(=O)c1ccc(NC(=O)CSc2nnc(CNC(=O)c3ccccc3F)o2)cc1 > 76.9 µM
CSCCC(NC(N)=O)C(=O)NCc1ccccc1Cl (stereo not given) > 76.9 µM
O=c1[nH]nnc2sc3c(c12)CCCC3 > 76.9 µM
COc1ccc(NC(=O)Nc2ccc(C(=O)N3CCOCC3)cc2)cc1 > 76.9 µM
CSc1nnc(-c2ccc(S(=O)(=O)N3CCOCC3)cc2)n1CC1CCCO1 (stereo not given) > 76.9 µM
CS(=O)(=O)N(CCC(=O)O)Cc1ccccc1 > 76.9 µM
COc1ccc2nc(SCC(=O)Nc3ccc4c(c3)OCCO4)[nH]c2c1 > 76.9 µM
COc1ccc2cc3cc(C(=O)NCCCN4CCOCC4)oc3nc2c1 > 76.9 µM
COc1ccc(N2CCN(c3oc(COc4ccc(Cl)cc4Cl)nc3C#N)CC2)cc1 > 76.9 µM
COc1cccc(-c2nc(CC(=O)O)cs2)c1OC > 76.9 µM
Cc1c(C(=O)NC2CCCc3ccccc32)oc2ccc(S(=O)(=O)N3CCOCC3)cc12 (stereo not given) > 76.9 µM
CCOC(=O)C1Cc2cc3c(cc2C1=O)CC(C(=O)OCC)C3=O (stereo not given) > 76.9 µM
COc1nc(OC)nc(N2CCC(C(=O)Nc3cccc4ccccc34)CC2)n1 > 76.9 µM
O=C(C1CCC1)N1CCc2cc(S(=O)(=O)N3CCCCC3)ccc21 > 76.9 µM
Cc1cccc(-c2nsc(SCC(=O)Nc3nccs3)n2)c1 > 76.9 µM
CCOC(=O)c1c(C)oc2c(F)c(F)c(F)c(F)c2c1=O > 76.9 µM
CCC(=O)c1ccccc1OCCCn1cncn1 > 76.9 µM
Cc1cc(C)c(NC(=O)CSc2nnc(-c3ccncc3)n2Cc2ccco2)c(C)c1 > 76.9 µM
CCOC(=O)C1=C(C)N=c2s/c(=C\c3ccncc3)c(=O)n2C1c1ccc2c(c1)OCO2 (stereo not given) > 76.9 µM
O=C(CS(=O)CC(=O)N(CC(=O)NC1CCCC1)C1CCCCC1)Nc1ccc(F)cc1 (stereo not given) > 76.9 µM
Clc1ccccc1-c1nc(-c2cccnc2)no1
COc1ccc2c(c1)c(C(O)CN1CCN(Cc3ccc4c(c3)OCO4)CC1)c(C)n2C (stereo not given) > 76.9 µM
Cc1cc(C)n(C2=NS(=O)(=O)c3ccccc32)n1 > 76.9 µM
COc1ccc2c(C)nc(Nc3nc(C)cc(=O)[nH]3)nc2c1 > 76.9 µM
COc1cccc(OCc2nc3c4cnn(-c5ccccc5)c4ncn3n2)c1 > 76.9 µM
CS(=O)(=O)Nc1ccc(C(=O)NCc2ccc3c(c2)OCO3)cc1 > 76.9 µM
O=C(O)c1cccc(CSc2nnc(COc3ccccc3)o2)c1 > 76.9 µM
O=C(CSc1nc2ccccc2c(=O)n1Cc1ccco1)NCc1ccccc1 > 76.9 µM
CSc1ccc(C2C3(C#N)C(N)=NC4(OCCO4)C23C#N)cc1 (stereo not given) > 76.9 µM
CC(NO)C(C)(C)NO (stereo not given) > 76.9 µM
CC1(C)N([O-])C(c2cccs2)=C[N+]1=O > 76.9 µM
O=C(N1CCOCC1)N1CCN(c2nc(-c3ccc(F)cc3)cs2)CC1 > 76.9 µM
CN(c1ccccc1C(N)=O)S(=O)(=O)c1ccccc1 > 76.9 µM
CCN(CC)C(=O)CC(c1ccc(F)cc1)c1ccco1 (stereo not given) > 76.9 µM
CCn1c2ccccc2c2cc(NC(=O)Cc3ccc(S(=O)(=O)N4CCOCC4)s3)ccc21 > 76.9 µM
COc1cc(C)c(S(=O)(=O)N2CCN(C)CC2)cc1C > 76.9 µM
CC(=O)N1CCC2(CC1)C(C#N)=C(N)Oc1n[nH]c(C)c12 > 76.9 µM
O=C(N1CCOCC1)N(Cc1ccco1)CC1CCCO1 (stereo not given) > 76.9 µM
CCSc1ccccc1C(=O)NCCCn1ccnc1 > 76.9 µM
O=C(OCC(=O)N1CCN(C(=O)c2ccco2)CC1)c1cc(-c2ccccc2)nc2ccccc12 > 76.9 µM
CCCCOc1ccc(-c2nnn(C(C)C(=O)OCC)n2)cc1 (stereo not given) > 76.9 µM
COc1cc(OC)cc(C(=O)NCC(=O)N2CCCCC2)c1 > 76.9 µM
CS(=O)(=O)c1ccc2nc(NC(=O)C3C4C=CC(C4)C3C(=O)O)sc2c1 (stereo not given) > 76.9 µM
CC1CCCN(C(C(=O)Nc2ccc3c(c2)OCCO3)c2ccccc2)C1 (stereo not given) > 76.9 µM
O=C(Cc1ccc(-n2cccc2)cc1)NC1CCCCC1 > 76.9 µM
CSc1ccccc1NS(=O)(=O)c1ccc2c(c1)OCCO2 > 76.9 µM
